“Also recorded” adds a separate entry of the source.
Columns and labels:
[1] = test system: DX5 cells; test: FACS binding to DX5 WT, CD47 KO and ABCB1 KO cells; assay type: cell-based, human; conditions: DX5 WT, CD47 KO and ABCB1 KO cells
Description: The mono arm antibodies each have only one binding valency for the target. The wild-type DX5 (DX5 WT) cells express both ABCB1 and CD47 antigens.
The mono arm antibodies only have one binding valency for the target.
The mono arm antibodies each have only one binding valency for the target.
FIGS. 19A-19C show the binding of bispecific humanized ABCB1XCD47 antibodies KB1-1418, KB1-1419 and KB1-1420 to wild-type Adriamycin-resistant DX5 cells, CD4 KO DX5 cells and ABCB1 KO (B1 KO) DX5 cells.

[2] = test system: N6/ADR cells; test: Cytotoxicity screening assay (vincristine-induced cytotoxicity); conditions: N6ADR drug resistant cell-based leukemia assay
Procedure: The effect of antibodies on vincristine-induced cytotoxicity was evaluated using the drug-resistant N6/ADR cell line. In this assay, vincristine was serially diluted, while the ABCB1 x CD47 BsAbs (or isotype control antibodies) were used at a uniform, saturating concentration. The assay readout was vincristine IC50 in the presence or absence of antibodies. Inhibition of ABCB1 should result in a lower vincristine IC50.
The assay was performed as follows: cells were plated in 0.05 mL of assay media (RPMI-1640+10% FBS) at 5000 cells/well in white, flat bottom 96-well tissue culture plates and incubated overnight at 37° C., 5% CO2. The following day vincristine was prepared at 2X final assay concentration by 1:5 or 1:10 serial dilutions in screening assay media containing test antibodies or control antibodies at 100 μg/mL (2X final concentration), or valspodar, a small molecule ABCB1 inhibitor, at 7 pM (2X final concentration). An equivalent volume (0.05 mL) of the vincristine/antibody mixture was added to the N6/ADR cells and incubated at 37° C., in 5% CO2.
After 72 hours, plates were removed from the incubator and allowed to equilibrate to room temperature. Viability was assessed using the Promega® CellTiter-Glo® Luminescent Cell Viability Assay according to the manufacturer's recommended protocol.

[3] = target: T1, human ABCB1 (Homo sapiens, UniProt P08183); test: Efflux inhibition in ABCB1 over-expressing HEK 293T cells; assay type: cell-based; conditions: Paclitaxel treated HEK293T cells overexpressing ABCB1
T1 construct: expressed in transfected cells
Procedure: HEK 293T cells over-expressing human ABCB1 were washed several times and aliquoted into 96-well plates as 50 I aliquots/well at a cell density of 2×10^6 cells per ml in phenol red-free Dulbecco's Modified Eagle's Medium (DMEM). Cells were mixed with 50 I aliquots of antibodies and 10 1 6 μM Calcein AM, and incubated for 2 h at 37° C. The cells were then washed twice and finally resuspended in 200 μl PBS. Calcein AM fluorescence retained in the cells was measured by flow cytometry. Efflux blockade was measure using the Multidrug Resistance Direct Dye Efflux Assay (Chemicon) following the manufacturer's protocol.

[4] = test system: MES-SA/Dx5 cells; test: In vivo anti-tumor effects on MES-SA/Dx5 multidrug resistance xenograft model; design: species or system athymic nude mice
Procedure: MES-SA/Dx5 cells were grown in RPMI-1640 supplemented with 10% FBS and 100 nM doxorubicin. Prior to implant cells were washed three times with D-PBS and resuspended in the same. Resuspended cells were mixed with an equal volume of Matrigel and xenografts were established by sub-cutaneous injection of 0.5×10^6 tumor cells into 5-8-week-old female athymic nude mice. Tumors were measured three times a week using a calibrated digital caliper, and tumor volumes (TV) were calculated as per the formula: TV=/*L*S*S, where L is the long axis and s is the short axis of the tumor. Once tumors reached 100-150 mm^3, mice were randomized into twelve groups of five mice each-(i) Control isotype IgG1 3 mg/kg, (ii) Control isotype IgG1 3 mg/kg and 20 mg/kg of paclitaxel, (iii) KNJYBisP1.1 3 mg/kg, (iv) KNJYBisP1.1 3 mg/kg and 20 mg/kg of paclitaxel, (v and vi) 15D3 HIR2/KT14 KbR1/B1.89v1.huL1(KV2) Bispecific 3 mg/kg, (vii and viii) 15D3 HIR2/KT14 KbR1/B1.89v1.huL1(KV2) Bispecific 3 mg/kg and 20 mg/kg of paclitaxel, (ix) 15D3hmz16-1 KK/KT14 DD/MRK16v4a1 Bispecific 3 mg/kg, (x) 15D3hmz16-1 KK/KT14 DD/MRK16v4a1 Bispecific 3 mg/kg and 20 mg/kg of paclitaxel, (xi) 15D3 HIR2/KT14 KbR1/B1VL6/CDR3v2a Bispecific 3 mg/kg, (xii) 15D3 HIR2/KT14 KbR1/B1VL6/CDR3v2a Bispecific 3 mg/kg and 20 mg/kg of paclitaxel.
Antibody and paclitaxel were dosed intraperitoneally twice a week for two consecutive weeks. […]

[5] = test system: MES-SA/Dx5/ADR cells; test: In vivo anti-tumor effects on MES-SA/Dx5/ADR multidrug resistance xenograft model; design: species or system athymic nude mice
Procedure: Prior to implant cells were washed three times with D-PBS and resuspended in the same.
Paclitaxel or vehicle was dosed four hours after the antibody.
Statistics: Tumor volume and body weights were compared between different experimental groups using exact one-way analysis of variance (ANOVA). Kaplan-Meier survival curves were compared between different treatment groups using the log-rank (Mantel-Cox) test. Statistical analyses were performed using Graph Pad Prism (GraphPad, San Diego, CA, USA) software. The level of significance was set at p<0.05 for all analyses.

[6] = test system: human MES-SA/DX5 multidrug resistant cell model target; test: Flow cytometry-based ADCC assay with human PBMC effector cells; assay type: cell-based

B1: KB1-1420: humanized ABCB1XCD47 bispecific antibody, HIR2/KbR1 Fc, B1.89v1.huL1(KV2) common light chain (antibody)
heavy 1: EVQLVESGGVVVQPGGSLRLSCAASGFTFSRYTMSWVRQAPGKGLEWVATISSGGGNTYYPDSVKGRFTVSRDNSKNSLYLQMNSLRTEDTALYYCARYGAGDAWFAYWGQGTLVTVSSASTKGPSVFPLAPSSKSTSGGTAALGCLVKDYFPEPVTVSWNSGALTSGVHTFPAVLQSSGLYSLSSVVTVPSSSLGTQTYICNVNHKPSNTKVDKRVEPKSCDKTHTCPPCPAPELLGGPSVFLFPPKPKDTLMISRTPEVTCVVVDVSHEDPEVKFNWYVDGVEVHNAKTKPREEQYNSTYRVVSVLTVLHQDWLNGKEYKCKVSNKALPAPIEKTISKAKGQPREPQVCTLPPSREEMTKNQVSLSCAVKGFYPSDIAVEWESNGQPENNYKTTPPVLDSDGSFVLVSKLTVDKSRWQQGNVFSCSVMHEALHNHYTQKSLSLSPG
heavy 2: QVQLVQSGAEVKKPGASVKVSCKASGYTFTNYNMHWVRQAPGQRLEWMGTIYPGNDDTSYNQKFKDRVTITADTSASTAYMELSSLRSEDTAVYYCARGGYRAMDYWGQGTLVTVSSASTKGPSVFPLAPSSKSTSGGTAALGCLVKDYFPEPVTVSWNSGALTSGVHTFPAVLQSSGLYSLSSVVTVPSSSLGTQTYICNVNHKPSNTKVDKRV[human IgG1 Fc with changes omitted]
light: DIVMTQSPLSLPVTPGEPASISCRSSQTIVHSNGNTYLEWYLQKPGQSPQLLIYKVSKRFSGVPDRFSGSGSGTDFTLKISRVEAEDVGVYYCFQASHFPRTFGQGTKLEIKRTVAAPSVFIFPPSDEQLKSGTASVVCLLNNFYPREAKVQWKVDNALQSGNSQESVTEQDSKDSTYSLSSTLTLSKADYEKHKVYACEVTHQGLSSPVTKSFNRGEC
- binding to ABCB1 and CD47 antigens expressed on cancer cell surface [1]: specifically bind
- in vitro potency (cell killing) [2]: significant in vitro potency
- efflux inhibition [3]: clear efflux inhibition
- tumor growth inhibition / activity as a single agent ([4]; 3 mg/kg i.p., listed as 15D3 HIR2/KT14 KbR1/B1.89v1.huL1 (KV2) hmz LC, 3 mg/kg): significantly inhibited tumor growth; also recorded: efficacious; also recorded: significant single agent activity
- tumor growth inhibition in combination with paclitaxel ([4]; 3 mg/kg plus paclitaxel 20 mg/kg): significantly inhibited tumor growth
- single agent efficacy [5]: efficacious as a single agent
- survival ([5]; with and without paclitaxel): significantly enhances survival
- enhancement of paclitaxel-mediated cell killing ([5]; with paclitaxel): enhances paclitaxel-mediated cell killing
- ADCC dose-response ([6]; E:T of 8:1, escalating concentrations): dose-dependent manner
- target cell death (ADCC) compared to the isotype control ([6]; all E:T ratios, 5 and 20 μg/ml): significantly higher target cell death

From patent US20250051471A1, “Anti-Abcb1 Antibodies” (WILLIAM ROBERT ARATHOON LIVING TRUST DATED AUGUST 29, 2016, priority 2021, published 2025)
